# Source: PubChem BioAssay AID1461 (National Center for Advancing Translational Sciences (NCATS), 2008)
# The whole screen tested about 220,000 compounds, of which about 2,300 (1%) were called active. Inconclusive means that the source gave no clear call. Such entries were picked first, then a sample of the others. Calls come from the whole dose curve; as a rule, active = well fitted inhibition curve with a large enough effect; inconclusive = small, poorly fitted or top-dose-only effect, or effect the other way; inactive = no such curve, though single readings can be large or run the other way. Potencies of inconclusive entries are left out as doubtful fits.
# Molecular target: Neuropeptide S receptor (Homo sapiens) (UniProt Q6W5P4)
# Sequence of UniProt Q6W5P4 (Q6W5P4 whole entry, looked up): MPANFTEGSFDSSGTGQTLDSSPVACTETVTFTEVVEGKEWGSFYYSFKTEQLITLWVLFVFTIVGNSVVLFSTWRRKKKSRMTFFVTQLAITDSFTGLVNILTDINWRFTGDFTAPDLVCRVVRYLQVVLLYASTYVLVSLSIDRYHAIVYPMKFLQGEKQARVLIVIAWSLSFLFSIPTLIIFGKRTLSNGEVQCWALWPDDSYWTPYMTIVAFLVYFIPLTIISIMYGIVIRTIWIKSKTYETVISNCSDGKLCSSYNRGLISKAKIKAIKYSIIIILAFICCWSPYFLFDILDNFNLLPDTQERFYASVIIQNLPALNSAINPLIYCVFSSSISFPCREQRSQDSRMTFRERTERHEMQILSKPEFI
# Assay: qHTS Assay for Antagonists of the Neuropeptide S Receptor: cAMP Signal Transduction; note: nearly all actives have a fitted effect of over 50% in size
# Settings: CHO-NPSR cells, cAMP TR-FRET, antagonist mode; activity change, negative = inhibition: at 38.3 µM (top of the series) unless noted
# Source text: NIH Chemical Genomics Center [NCGC] NIH Molecular Libraries Probe Production centers Network [MLPCN] MLPCN Grant: X01-DA026210-01 Assay Submitter (PI): Heilig, Markus Alexander NCGC Assay Overview: Neuropeptide S receptor (NPSR), previously known as GPR154, is a recently de-orphanized G protein coupled receptor. Its endogenous ligand is the 20 amino acids peptide Neuropeptide S (NPS). […] NPS and its receptor are found in various tissues. Specifically they are highly expressed in brain areas that have been implicated in modulation of arousal, stress and anxiety. Central administration of NPS in mice produces an unusual profile of activity by inducing wakefulness and arousal, while at the same time suppressing anxiety. Therefore, NPSR may represent a novel drug target for the treatment of sleep and anxiety disorders. To identify NPSR antagonists, we developed a cell-based cAMP assay. NPS can stimulate the production of cAMP in Chinese hamster ovary cells stably expressing NPS receptor. This change in intracellular cAMP level can be detected by a homogeneous LANCE cAMP assay based on the TR-FRET (time resolved fluorescence resonance energy transfer) between a europium-labeled cAMP tracer complex and a cAMP-specific antibody labeled with Alexa Fluor 647. The europium-labeled cAMP tracer complex is formed by the tight interaction between Biotin-cAMP (b-cAMP) and streptavidin labeled with Europium-W8044 chelate (Eu-SA). Light pulse at 320 nm excites the europium of the cAMP tracer and the energy emitted is transferred to the Alexa molecule bound to the cAMP antibody, generating a TR-FRET signal at 665 nm. Residual energy from the europium will produce a light at 620 nm. The native unlabeled cAMP from cell lysates competes with the europium-cAMP tracer for antibody binding and reversely reduces the emission signal of Alexa by interrupting FRET between the two labeled molecules. Both emission signals from the FRET donor (620 nm) and the acceptor (665 nm) can be detected by a plate reader in the TRF mode. Expression of result in fluorescence ratio (665 nm/620 nm) helps to normalize differences due to cell density and reagent dispensing. This assay was successfully optimized to a 1536-well plate format.
# NCGC Assay Protocol Summary: A Chinese hamster ovary (CHO) cell line stably expressing the NPS receptor (CHO-NPSR) was obtained from Dr. Heilig lab at NIAAA and maintained in F-12 Kaighn's media (Invitrogen, Carlsbad, CA, 21127) supplemented with 10 % FBS, 100 units/ml penicillin, 100 ug/ml streptomycin and 250 ug/ml geneticin at 37C, 5% CO2 in a humidified atmosphere. Before the assay, aliquots of cells were frozen and stored at -135C. The assay was performed in 1536-well format. Data are reported for both the ratio of the two emission wavelengths, and also for the component 'donor' channel, Em2=620. Data were normalized to the controls for basal activity (DMSO only) and 100% inhibition (No NPS control). IC50 values were determined from concentration-response data modeled with the standard Hill equation. NPS 1536-well assay protocol: (1) Fresh or frozen CHO-NPSR cells were suspended in F-12 Kaighn's media supplemented with 10 % FBS, 100 units/ml penicillin and 100 ug/ml streptomycin. Cells were plated at 4 ul/well (1200 cells) to white, tissue culture treated 1536-well plates, and then cultured at 37C, 5 % CO2 for 16 to 30 hours. (2) Add 23 nl/well of compound in DMSO solution. The final titration for each compound was between 0.6 nM and 46 uM. (3) Add 1 ul of stimulation reagent (1X HBSS buffer, 5 mM HEPES, 0.1% BSA, 500 uM RO-201724 (Sigma-Aldrich, B8279), 1.5% Alexa 647-labeled anti-cAMP antibody (from Perkin Elmer), 100 nM NPS) (4) Incubation at 37C, 5 % CO2 for 60 min. (5) Add 1 ul/well detection reagent. Detection reagent was prepared by adding biotin labeled cAMP (4%), streptavidin labeled with Europium-W8044 chelate (1.33%) and TritonX-100 (1%) to detection buffer. […]
# % is set by controls: 0 for no effect and ±100 for the full control effect; potency is the fitted concentration of half-maximal effect; tags give direction and shape of the fitted curve.
Compound,"activity change, negative = inhibition",Potency
O=C(CCc1nc2ccccc2c(=O)[nH]1)OCCOc1ccc(Cl)cc1,inactive: -2.98%,
CCOC(=O)CC(=O)CSc1ncnc2c1oc1ccccc12,,"inconclusive [activator, full curve]"
Cc1cc(OCC(C)C)ccc1/C(O)=C1/C(=O)C(=O)N(Cc2cccnc2)C1c1ccncc1 (centres undefined),,"inconclusive [activator, single point]"
CCC(=O)Nc1ccc(N2CCCCC2)c(C(=O)Nc2ccccc2C)c1,,"inconclusive [inhibitor, single point]"
COc1ccccc1-c1cc(C(F)(F)F)nc(NCc2ccco2)n1,,"inconclusive [inhibitor, single point]"
CCCCCCCCCCCCCCCC(=O)OC(CC(=O)O)C[N+](C)(C)C (centres undefined),,"inconclusive [inhibitor, partial curve]"
CCOC(=O)c1c(-c2ccccc2)oc2ccc(OC(C)=O)cc12,,"inconclusive [inhibitor, partial curve]"
COc1ccc(CN2CCCC(C(=O)c3ccc(SC)cc3)C2)cc1Cn1cccn1 (centres undefined),,"inconclusive [activator, single point]"
CCCCC(=O)NC(c1ccco1)c1c(O)ccc2ccccc12 (centres undefined),,"inconclusive [inhibitor, partial curve]"
CCOC(=O)c1ccc(N/C(=N\S(=O)(=O)c2ccccc2C)c2ccccc2)cc1,,"inconclusive [inhibitor, partial curve]"
O=C(O)c1ccccc1-c1ccccc1C(=O)Nc1ccc(-c2nc3cc(Cl)ccc3o2)cc1,,"inconclusive [activator, single point]"
COc1ccc2[nH]c3c(=O)n(CCCCC(=O)NCCN4CCCC4)c(=S)[nH]c3c2c1,,"inconclusive [inhibitor, single point]"
COc1cccc(-n2nc(C(=O)Nc3ccc4c(c3)OCO4)c3ccccc3c2=O)c1,,"inconclusive [inhibitor, partial curve]"
CC(C)c1ccc(/C=N/NC(=O)CN(c2cccc(Cl)c2Cl)S(C)(=O)=O)cc1,,"inconclusive [inhibitor, single point]"
CCCn1c(=N)n(CC(O)COc2ccc(C)cc2)c2ccccc21 (centres undefined),,"inconclusive [activator, single point]"
Cc1ccc(C2N(C)c3ccccc3-c3nc4ccccc4n32)o1 (centres undefined),,"inconclusive [inhibitor, partial curve]"
CCOC(=O)c1ccc(S(=O)(=O)N2CCN(CC(=O)NC(=O)NC3CCCCC3)CC2)cc1,,"inconclusive [inhibitor, single point]"

Compound,"activity change, negative = inhibition",Potency
O=C(Nc1cccc(-c2nc3ncccc3o2)c1)c1cc2ccccc2o1,,"inconclusive [inhibitor, partial curve]"
COc1ccc(-n2nc3c(c2NC(=O)c2ccc(S(=O)(=O)N4CCOCC4)cc2)CS(=O)C3)cc1 (centres undefined),inactive: 4.56%,
NC(=O)CSc1ncnc2c1oc1ccccc12,,"inconclusive [inhibitor, partial curve]"
CCOc1ccccc1-n1c(SCC(=O)Nc2ccc(CC)cc2)nc2n[nH]c(C)c2c1=N,,"inconclusive [inhibitor, single point]"
Cc1cccc(N2CCN(C(=O)c3cc4n(n3)C(C(F)(F)F)CC(c3ccco3)N4)CC2)c1C (centres undefined),,"inconclusive [inhibitor, single point]"
Cc1oc(-c2ccc(F)cc2)cc1-c1nn2c(-c3ccoc3C)nnc2s1,,"inconclusive [inhibitor, partial curve]"
Cc1ccccc1OCc1n(CC(=O)OC2CC(C)CCC2C(C)C)c2ccccc2[n+]1C (centres undefined),,"inconclusive [inhibitor, single point]"
CCOc1ccc(N2C(=O)C(c3ccccc3)=C(c3nc4ccccc4s3)C2NC(C)=O)cc1 (centres undefined),,"inconclusive [inhibitor, single point]"
COc1ccc(-c2nnc(SCc3c(C)noc3C)n2N)cc1OC,inactive: -16.8% [at 46.1 µM],
NC(=S)N/N=C1\CCOc2ccc(Cl)cc21,,"inconclusive [activator, single point]"
O=c1oc2ccccc2c(NCCO)c1[N+](=O)[O-],inactive: 11.2%,
COc1cc(Cl)c(C)cc1NC(=O)CN(C)Cc1cccc(OC)c1OC,,"inconclusive [inhibitor, single point]"
Clc1ccc(-c2nnc3n2CCCCC3)cc1,inactive: -3.12% [at 46.1 µM],
COc1cc(OC)nc(Oc2ccccc2C(=O)Oc2ccc(Cl)cc2)n1,,"inconclusive [inhibitor, partial curve]"
Cc1ccc(C)c(S(=O)(=O)Nc2ccc3scnc3c2)c1,,"inconclusive [inhibitor, partial curve]"
Cc1cc([N+](=O)[O-])nn1CC(=O)N1CCc2ccccc2C1,inactive: 7.96% [at 46.1 µM],
O=C(NCc1ccc2c(c1)OCO2)c1ccc(CS(=O)(=O)c2ccc(Br)cc2)o1,inactive: -12.2% [at 46.1 µM],
